We go through five molecules from PMC4076837.

Sequences of proteins named here, by UniProt entry; tags and fusion partners are left off.
UniProt P35573: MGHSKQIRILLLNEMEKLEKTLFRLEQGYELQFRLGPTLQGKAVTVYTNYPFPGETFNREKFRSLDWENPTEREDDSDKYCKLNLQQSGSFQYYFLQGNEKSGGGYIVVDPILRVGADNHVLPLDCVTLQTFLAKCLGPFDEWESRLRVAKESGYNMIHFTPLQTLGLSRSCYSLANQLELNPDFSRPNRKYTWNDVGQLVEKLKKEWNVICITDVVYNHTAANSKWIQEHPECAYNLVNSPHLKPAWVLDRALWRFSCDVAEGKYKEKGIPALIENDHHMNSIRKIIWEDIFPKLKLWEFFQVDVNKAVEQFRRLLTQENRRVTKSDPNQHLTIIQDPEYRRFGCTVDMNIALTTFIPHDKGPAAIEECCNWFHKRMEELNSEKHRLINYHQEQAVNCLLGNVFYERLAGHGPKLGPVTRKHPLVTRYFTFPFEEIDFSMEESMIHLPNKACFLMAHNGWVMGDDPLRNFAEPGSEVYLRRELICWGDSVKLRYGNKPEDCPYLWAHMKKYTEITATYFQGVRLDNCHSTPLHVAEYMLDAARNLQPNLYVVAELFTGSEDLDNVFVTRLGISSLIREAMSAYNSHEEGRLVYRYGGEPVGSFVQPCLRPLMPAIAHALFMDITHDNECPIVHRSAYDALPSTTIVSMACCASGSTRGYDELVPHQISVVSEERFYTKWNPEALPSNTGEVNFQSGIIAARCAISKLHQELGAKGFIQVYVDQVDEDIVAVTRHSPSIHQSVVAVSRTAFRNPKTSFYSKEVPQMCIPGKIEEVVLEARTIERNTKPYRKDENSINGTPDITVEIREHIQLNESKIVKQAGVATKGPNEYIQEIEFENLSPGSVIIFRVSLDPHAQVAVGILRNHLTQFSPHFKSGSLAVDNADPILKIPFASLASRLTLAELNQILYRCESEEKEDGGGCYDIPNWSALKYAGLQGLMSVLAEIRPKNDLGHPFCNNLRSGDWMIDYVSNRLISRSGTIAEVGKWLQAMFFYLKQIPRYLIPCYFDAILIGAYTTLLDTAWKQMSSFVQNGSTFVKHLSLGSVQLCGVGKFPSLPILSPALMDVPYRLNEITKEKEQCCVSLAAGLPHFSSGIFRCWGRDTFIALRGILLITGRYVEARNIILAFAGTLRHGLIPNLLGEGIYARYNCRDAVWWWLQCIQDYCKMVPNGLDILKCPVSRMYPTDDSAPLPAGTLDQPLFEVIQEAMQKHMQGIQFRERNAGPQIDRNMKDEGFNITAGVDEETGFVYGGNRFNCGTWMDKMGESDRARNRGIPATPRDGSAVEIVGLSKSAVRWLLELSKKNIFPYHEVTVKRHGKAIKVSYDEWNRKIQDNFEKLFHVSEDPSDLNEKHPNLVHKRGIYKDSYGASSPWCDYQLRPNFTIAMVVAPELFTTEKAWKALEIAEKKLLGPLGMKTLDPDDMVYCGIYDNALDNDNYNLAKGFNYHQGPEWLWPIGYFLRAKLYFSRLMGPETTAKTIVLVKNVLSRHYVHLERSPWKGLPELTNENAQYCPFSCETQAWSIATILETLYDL
UniProt P70452: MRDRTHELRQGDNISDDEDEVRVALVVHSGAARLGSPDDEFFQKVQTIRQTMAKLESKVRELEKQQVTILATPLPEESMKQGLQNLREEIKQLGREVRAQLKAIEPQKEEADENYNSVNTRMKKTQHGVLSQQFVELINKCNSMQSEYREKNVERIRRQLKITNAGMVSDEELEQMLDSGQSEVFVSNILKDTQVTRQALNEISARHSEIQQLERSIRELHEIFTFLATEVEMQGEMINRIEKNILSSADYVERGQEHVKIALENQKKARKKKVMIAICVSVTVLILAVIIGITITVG
UniProt F8VPN4: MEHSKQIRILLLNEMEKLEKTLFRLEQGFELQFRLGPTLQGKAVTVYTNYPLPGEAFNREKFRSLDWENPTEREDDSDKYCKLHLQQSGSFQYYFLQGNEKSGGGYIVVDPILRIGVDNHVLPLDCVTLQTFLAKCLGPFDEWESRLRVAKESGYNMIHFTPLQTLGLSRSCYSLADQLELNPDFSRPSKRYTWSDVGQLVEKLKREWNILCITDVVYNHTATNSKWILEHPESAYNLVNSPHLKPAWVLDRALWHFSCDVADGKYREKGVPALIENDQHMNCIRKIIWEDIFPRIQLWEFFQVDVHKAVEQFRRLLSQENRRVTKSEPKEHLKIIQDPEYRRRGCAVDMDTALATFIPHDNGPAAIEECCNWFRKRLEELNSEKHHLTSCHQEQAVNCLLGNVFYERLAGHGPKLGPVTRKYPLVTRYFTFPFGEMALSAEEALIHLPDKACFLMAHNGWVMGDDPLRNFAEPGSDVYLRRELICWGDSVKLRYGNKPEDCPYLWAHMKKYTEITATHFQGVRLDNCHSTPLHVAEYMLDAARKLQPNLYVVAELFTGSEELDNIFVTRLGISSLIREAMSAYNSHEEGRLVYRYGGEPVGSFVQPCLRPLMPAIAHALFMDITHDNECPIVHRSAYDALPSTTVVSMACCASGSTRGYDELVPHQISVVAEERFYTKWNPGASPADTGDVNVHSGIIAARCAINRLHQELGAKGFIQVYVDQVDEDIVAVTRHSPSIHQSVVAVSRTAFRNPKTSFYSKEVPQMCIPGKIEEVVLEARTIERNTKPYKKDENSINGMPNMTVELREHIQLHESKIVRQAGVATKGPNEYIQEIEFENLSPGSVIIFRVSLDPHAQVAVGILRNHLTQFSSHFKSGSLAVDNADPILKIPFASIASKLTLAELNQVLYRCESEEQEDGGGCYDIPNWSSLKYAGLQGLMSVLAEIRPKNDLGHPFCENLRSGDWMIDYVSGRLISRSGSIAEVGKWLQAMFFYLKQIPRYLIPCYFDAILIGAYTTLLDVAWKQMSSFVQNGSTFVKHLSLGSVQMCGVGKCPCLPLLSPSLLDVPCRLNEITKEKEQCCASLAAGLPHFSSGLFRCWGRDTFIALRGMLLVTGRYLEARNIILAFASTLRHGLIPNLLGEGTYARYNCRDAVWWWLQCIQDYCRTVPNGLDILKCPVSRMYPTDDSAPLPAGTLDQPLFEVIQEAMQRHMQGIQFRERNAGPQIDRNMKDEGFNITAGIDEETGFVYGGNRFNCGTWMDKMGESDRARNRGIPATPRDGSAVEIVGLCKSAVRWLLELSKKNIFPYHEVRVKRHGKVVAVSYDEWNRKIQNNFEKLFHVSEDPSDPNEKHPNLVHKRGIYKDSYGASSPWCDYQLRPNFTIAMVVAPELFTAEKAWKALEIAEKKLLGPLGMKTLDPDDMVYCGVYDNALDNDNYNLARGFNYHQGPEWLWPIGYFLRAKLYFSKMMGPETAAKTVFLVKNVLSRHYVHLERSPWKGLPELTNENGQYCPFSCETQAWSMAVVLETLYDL

No constants are given. Whether binding was seen depends on the method and setting. Binding seen in cells or lysates may run through a third protein. Some entries that bind do so weakly or less than the wild type. Where a sequence is shown, tags or fusion partners need not be part of it.

Experiment [1] has as its target T1, GST–STBD1 NDel mutant (human (cDNA from HepG2 cells)) (UniProt O95210).
T1 sequence: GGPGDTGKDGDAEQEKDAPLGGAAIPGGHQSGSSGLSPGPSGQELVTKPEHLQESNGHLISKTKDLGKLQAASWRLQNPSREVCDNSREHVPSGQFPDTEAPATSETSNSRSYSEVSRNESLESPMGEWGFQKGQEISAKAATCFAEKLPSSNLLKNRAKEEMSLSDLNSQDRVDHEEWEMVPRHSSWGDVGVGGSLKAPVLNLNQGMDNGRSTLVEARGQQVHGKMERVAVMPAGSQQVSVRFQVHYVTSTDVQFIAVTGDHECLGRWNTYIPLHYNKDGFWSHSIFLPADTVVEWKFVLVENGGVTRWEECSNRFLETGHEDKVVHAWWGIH
In words: pull-down; GST–STBD1 proteins (or GST alone) immobilised on glutathione–sepharose beads, incubated with mouse liver lysate for 90 min at 4°C; washed three times with lysis buffer; Western blot; only the target purified. (In western blotting, separated proteins are transferred to a membrane and probed.)

In a further experiment the target is T2, FLAG-tagged Laforin (UniProt O95278).
T2 sequence: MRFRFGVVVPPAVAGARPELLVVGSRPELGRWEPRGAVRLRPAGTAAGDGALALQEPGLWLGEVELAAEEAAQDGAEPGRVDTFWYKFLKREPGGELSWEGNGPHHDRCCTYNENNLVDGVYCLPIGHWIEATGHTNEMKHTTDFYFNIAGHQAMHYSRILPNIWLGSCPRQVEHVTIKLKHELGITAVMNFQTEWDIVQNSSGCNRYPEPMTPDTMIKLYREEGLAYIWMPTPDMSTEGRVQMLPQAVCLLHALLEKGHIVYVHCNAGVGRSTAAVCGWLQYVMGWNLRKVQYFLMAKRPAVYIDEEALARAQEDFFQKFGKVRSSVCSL
In words: co-IP; COS cells co-transfected with HA-STBD1 and FLAG-tagged constructs; anti-FLAG immunoprecipitates blotted; lysis buffer 25 mM Tris pH 7.5, 150 mM NaCl, 1% Triton X-100; 2 h at 4°C.

In experiment [2] the target is T3, FLAG-tagged GBE1 (glycogen branching enzyme 1) (UniProt Q04446).
T3 sequence: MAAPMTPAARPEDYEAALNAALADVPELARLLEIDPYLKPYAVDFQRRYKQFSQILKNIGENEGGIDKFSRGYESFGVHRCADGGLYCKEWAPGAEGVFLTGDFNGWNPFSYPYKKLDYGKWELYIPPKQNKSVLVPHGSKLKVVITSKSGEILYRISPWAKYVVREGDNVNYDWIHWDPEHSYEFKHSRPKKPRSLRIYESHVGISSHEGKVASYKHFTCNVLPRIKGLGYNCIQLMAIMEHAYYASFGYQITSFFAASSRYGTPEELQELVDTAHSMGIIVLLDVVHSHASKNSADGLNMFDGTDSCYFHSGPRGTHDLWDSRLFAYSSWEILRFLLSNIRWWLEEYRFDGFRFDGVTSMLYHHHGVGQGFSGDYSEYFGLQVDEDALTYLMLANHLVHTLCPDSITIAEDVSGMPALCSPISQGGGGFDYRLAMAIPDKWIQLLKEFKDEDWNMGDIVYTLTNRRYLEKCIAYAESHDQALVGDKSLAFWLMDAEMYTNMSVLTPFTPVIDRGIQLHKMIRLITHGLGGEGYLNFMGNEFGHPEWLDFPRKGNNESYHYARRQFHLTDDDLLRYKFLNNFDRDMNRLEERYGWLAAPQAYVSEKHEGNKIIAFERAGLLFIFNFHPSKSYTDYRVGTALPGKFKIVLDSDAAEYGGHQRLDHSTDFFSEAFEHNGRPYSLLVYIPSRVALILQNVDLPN
The description is as above.

Experiment [3] addresses FLAG-tagged GDE (glycogen debranching enzyme) (UniProt P35573). The description is as above.
The target in experiment [4] is T4, FLAG-tagged PTG (protein targeting to glycogen), Q9UQK1.
T4 chain: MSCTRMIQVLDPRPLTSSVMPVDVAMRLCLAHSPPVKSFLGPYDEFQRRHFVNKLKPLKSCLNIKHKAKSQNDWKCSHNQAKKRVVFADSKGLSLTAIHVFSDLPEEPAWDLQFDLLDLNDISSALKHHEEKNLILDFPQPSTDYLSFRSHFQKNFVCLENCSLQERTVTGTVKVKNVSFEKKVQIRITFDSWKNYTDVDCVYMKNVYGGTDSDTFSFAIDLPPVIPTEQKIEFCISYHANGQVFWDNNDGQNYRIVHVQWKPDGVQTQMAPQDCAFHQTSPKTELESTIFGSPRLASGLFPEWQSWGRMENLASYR
Described as above. Particulars: remark: other sources report otherwise.

With “endogenous STX4a (syntaxin 4a) of mouse liver (from UniProt P70452 1-298)”, the binding result in experiment [1] is reported as “no binding”.

Take “endogenous GDE (glycogen debranching enzyme) of mouse liver (from UniProt F8VPN4 1-1532)”: the binding entry in experiment [1] is given as “binds”.

B1: endogenous Laforin of mouse liver (enzyme, UniProt Q9WUA5 1-330)
chain: MLFRFGVVVPPAVAGARQELLLAGSRPELGRWEPHGAVRLRPAGTAAGAAALALQEPGLWLAEVELEAYEEAGGAEPGRVDTFWYKFLQREPGGELHWEGNGPHHDRCCTYNEDNLVDGVYCLPVGHWIEATGHTNEMKHTTDFYFNIAGHQAMHYSRILPNIWLGSCPRQLEHVTIKLKHELGVTAVMNFQTEWDIIQNSSGCNRYPEPMTPDTMMKLYKEEGLSYIWMPTPDMSTEGRVQMLPQAVCLLHALLENGHTVYVHCNAGVGRSTAAVCGWLHYVIGWNLRKVQYFIMAKRPAVYIDEDALAQAQQDFSQKFGKVHSSICAL
With B1, in experiment [1], the binding result is “binds”.

B2: HA-tagged STBD1 (starch-binding domain-containing protein 1), wild type (protein, UniProt O95210 1-358)
chain: MGAVWSALLVGGGLAGALFVWLLRGGPGDTGKDGDAEQEKDAPLGGAAIPGGHQSGSSGLSPGPSGQELVTKPEHLQESNGHLISKTKDLGKLQAASWRLQNPSREVCDNSREHVPSGQFPDTEAPATSETSNSRSYSEVSRNESLESPMGEWGFQKGQEISAKAATCFAEKLPSSNLLKNRAKEEMSLSDLNSQDRVDHEEWEMVPRHSSWGDVGVGGSLKAPVLNLNQGMDNGRSTLVEARGQQVHGKMERVAVMPAGSQQVSVRFQVHYVTSTDVQFIAVTGDHECLGRWNTYIPLHYNKDGFWSHSIFLPADTVVEWKFVLVENGGVTRWEECSNRFLETGHEDKVVHAWWGIH
As to B2, the binding result (with FLAG-tagged Laforin; in experiment [2]; in experiment [3]) was “binds” throughout.

B3: HA-tagged STBD1 (starch-binding domain-containing protein 1), wild type, O95210 1-358 (protein)
chain: B2 chain
As to B3, the binding result in experiment [4] was “no binding”.
